Experimental findings from PubChem BioAssay AID488969 (Vanderbilt High Throughput Screening Facility, 2010) are described below.

The full ranking holds about 110,000 compounds; the median of “z-score” is about -0.1, and the highest 2% start at about 2. The list shows a part of the results. Activity calls are given as the source filed them.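 Rule for the calls: active = z-score in the third read window above 3 or below -3; inactive = the rest.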

This assay concerns the target Metabotropic glutamate receptor 8 (Rattus norvegicus) (UniProt P70579). Put plainly: mGluR8 Gi/Go-coupled signaling modulation – cell-based, rat, thallium flux, HTS, primary screen (AID 488969). As to conditions: HEK293 rat mGluR8, GIRK (G protein-gated inwardly rectifying potassium channel) thallium flux, FluoZin2; at 10 µM; stronger effect = higher value; submaximal glutamate (EC20) added with thallium.
Sequence of UniProt P70579 (P70579 whole entry, looked up): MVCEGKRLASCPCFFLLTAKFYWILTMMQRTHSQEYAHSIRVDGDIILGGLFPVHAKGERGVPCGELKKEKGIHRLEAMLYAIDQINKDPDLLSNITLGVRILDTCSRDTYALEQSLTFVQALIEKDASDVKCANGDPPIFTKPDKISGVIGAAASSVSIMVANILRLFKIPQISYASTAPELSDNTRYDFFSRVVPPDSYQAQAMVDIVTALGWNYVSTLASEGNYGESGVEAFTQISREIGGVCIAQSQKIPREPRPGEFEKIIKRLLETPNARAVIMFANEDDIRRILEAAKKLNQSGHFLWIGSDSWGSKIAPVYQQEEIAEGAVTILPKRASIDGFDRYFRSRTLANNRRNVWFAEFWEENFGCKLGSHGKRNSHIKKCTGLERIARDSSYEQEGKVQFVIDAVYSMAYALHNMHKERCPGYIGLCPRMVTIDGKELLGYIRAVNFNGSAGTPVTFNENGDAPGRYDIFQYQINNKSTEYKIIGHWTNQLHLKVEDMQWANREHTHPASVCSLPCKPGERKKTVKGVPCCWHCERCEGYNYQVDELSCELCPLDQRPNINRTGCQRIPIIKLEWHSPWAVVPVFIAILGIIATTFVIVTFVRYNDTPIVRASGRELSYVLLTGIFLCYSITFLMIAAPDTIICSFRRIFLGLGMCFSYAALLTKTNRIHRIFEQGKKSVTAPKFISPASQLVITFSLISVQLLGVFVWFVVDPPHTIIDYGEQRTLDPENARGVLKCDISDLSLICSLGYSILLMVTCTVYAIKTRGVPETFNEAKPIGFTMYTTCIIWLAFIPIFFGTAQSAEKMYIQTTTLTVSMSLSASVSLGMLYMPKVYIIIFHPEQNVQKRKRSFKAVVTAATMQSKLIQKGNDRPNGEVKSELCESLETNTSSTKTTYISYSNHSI
The molecule `COc1ccc(CCNC(=O)C2(C)CCC(=O)N2CCC(C)C)cc1OC` (stereo not drawn) displayed a z-score of 0.67. `CCc1c(C)nc2ncnn2c1Nc1ccc(C)c(C)c1` showed a z-score of 0.364.

The molecule `O=C(c1ccco1)N1CCN(S(=O)(=O)c2ccc(C3CCCCC3)cc2)CC1` returned a z-score of 0.0683. Turning to `Cc1ccc(S(=O)(=O)N(C(=O)c2ccncc2)c2ccc(OC(=O)c3ccncc3)cc2)c(C)c1`, the z-score is -0.0221. As for `CC(C)CC1C(C#N)=C(N)SC(N)=C1C#N`, the figure is 0.615; as for `COc1ccc(C2C(C#N)=C(N)Oc3c2sc2nc(C)cc(C)c32)cc1` (stereo not drawn), -0.176. On to `Fc1ccccc1CSc1nc2ncc(Br)cc2[nH]1`, for which the z-score is 1.26. Regarding `CC1(C)CC(=O)C=C(N2CCCC2)C1`, the z-score is 0.182.

The molecule `CCCNC(=O)N1CCN(C(=O)NCCC)CC1` came in with a z-score of 0.192.

For the molecule `COC(=O)CCc1n[nH]c(=O)[nH]c1=O`, the z-score was -0.103.

Turning to `COc1cccc(C(=O)OCCN2C(=O)c3ccccc3C2=O)c1OC`, the z-score worked out at 0.5. As for `Cc1cn(C(=O)c2cccc(Br)c2)c(C)n1`, the figure is 0.0669; as for `COc1ccc(C(=O)CC2OC(=O)c3c2ccc(OC)c3OC)cc1` (stereo not drawn), -0.0894; as for `COCCCNC(=O)Nc1ccc(F)cc1F`, 0.423. The figure for `Cc1ccc(N(C(=O)Cn2nnc3ccccc32)C(C(=O)NCc2ccco2)c2cccnc2)cc1` (stereo not drawn) is -0.0932. Molecule `CC(C)C(c1nnnn1Cc1ccc(F)cc1)N1CCN(C2CCCCC2)CC1` (stereo not drawn) showed a z-score of -0.0791. As for `O=C(c1ccc(Cl)c(Cl)c1)N1CCCC1`, the figure is 0.0158; as for `COc1ccc(C(=O)n2nc(-c3ccc(Cl)cc3)nc2N)cc1OC`, -0.116. `COc1cc(Cl)c(C)cc1NC(=O)CSc1ccccc1` displayed a z-score of -0.18.

Molecule `Cc1ccc(C)c(NS(=O)(=O)c2ccc(NC(=O)c3ccco3)cc2)c1` registered a z-score of -0.199. As to `Cc1nn(CC2CCCCC2)c(N)c1-c1ccccc1`, the z-score is -0.323. As for `O=C(Nc1ccc(N2CCCCC2)c(Cl)c1)c1ncn[nH]1`, the figure is 0.615; as for `NC(=O)N1CCN(C(=O)c2ccco2)CC1`, 0.536; as for `Cc1cccc(Nc2nc(N)c([N+](=O)[O-])c(N3CC(C)CC(C)C3)n2)c1` (stereo not drawn), -0.256. Consider `CCOc1ccc(S(=O)(=O)N(CC(=O)N/N=C/c2cccs2)c2ccc(C)cc2)cc1`, for which the z-score is 0.0399. As for `Cc1ccc(-n2c(C)cc(/C=N/Nc3ccc([N+](=O)[O-])cn3)c2C)cc1`, the figure is -0.189. On to `COC(=O)c1ccc(NC(C)=O)o1`, for which the z-score turned out to be 0.0376. As to `CC12CCC(C(=O)N(CSC(=S)N/N=C\c3ccccc3O)C1=O)C2(C)C` (stereo not drawn), the z-score was active: 5.76. The figure for `CCC(=O)Nc1cccc(Oc2nc(C)cc(C)c2C#N)c1` is -0.681; for `O=C(CCc1ccccc1)n1nc(-c2ccco2)nc1SCc1ccccc1` it is 0.379; for `COc1ccc2oc(=O)c(C(=O)N3CCN(c4ccccc4C)CC3)cc2c1` it is 0.226.

The molecule `COc1ccc(S(=O)(=O)n2ccc(-c3ccc(OCCN(C)c4ccccn4)cc3)n2)cc1` had a z-score of 0.589. As for `O=C(Nc1nccs1)C1C2/C=C\CCCCC21` (stereo not drawn), the figure is 0.175; as for `Cc1ccc(/C=N/n2c(=O)c(C(C)(C)C)nn3cnnc23)cc1`, -0.242.

The molecule `O=C(CSc1nc(N2CCCCC2)nc(N2CCCCC2)n1)N1CCc2ccccc21` had a z-score of -0.251. For `Cc1cccc(C(=O)N2c3ccccc3C(=O)OC2c2ccc3c(c2)OCO3)c1` (stereo not drawn), the z-score was -0.842.

For the molecule `Cc1ccccc1N1CC(O)(c2ccccc2)[N+]2=C1SCC2` (stereo not drawn), the z-score was -0.424. Take `CNC(=O)C1=C(C)NC(=S)NC1c1cc2c(cc1OC)CCCC2` (stereo not drawn): the z-score was -0.175. The figure for `O=C(N/N=C/c1c[nH]c2ccc(Br)cc12)c1ccn(Cc2ccc(Cl)cc2)n1` is -0.0795; for `COc1ccccc1Nc1ccc(S(=O)(=O)N2CCCCC2)cc1[N+](=O)[O-]` it is -0.0524; for `COCCn1c(SCC(=O)Nc2ccc(NC(=O)c3ccco3)c(OC)c2)nc2ccccc2c1=O` it is -0.361.

For the molecule `CCOc1ccc(C(CCc2ccccc2)NC(=O)c2ccccc2OC)cc1OCC` (stereo not drawn), the z-score is -0.472.

Turning to `CCc1cccc(NS(=O)(=O)c2c(C)n[nH]c2C)c1`, the z-score was -0.174. The figure for `N=c1c2c(-c3ccccc3)c(-c3ccccc3)n(Cc3ccco3)c2ncn1Cc1ccccc1` is 0.528; for `CS(=O)(=O)N(CC(=O)N1CCCC1)c1ccc(Cl)c(Cl)c1` it is -0.0333. As for `O=[N+]([O-])c1c(Nc2ccc(O)cc2)cc(N2CCOCC2)c2nonc12`, the figure is 0.274.

For the molecule `Cc1cc(C)n(C(=O)CCC(=O)NCc2ccccc2)n1`, the z-score is -0.571. `O=C(c1ccco1)N1CCN(S(=O)(=O)c2ccc(S(=O)(=O)NC3CCCCC3)cc2)CC1` showed a z-score of 0.85.

Molecule `Cc1ccc(N(C(=O)c2cccs2)C2C=CS(=O)(=O)C2)cc1` (stereo not drawn) returned a z-score of -0.179. In turn, `COc1ccc(CN(C(=O)CO/N=C/c2ccccc2)c2ccccc2C(=O)O)cc1` yielded a z-score of -0.413. For the molecule `COc1ccccc1CNC(=O)CCn1c(=O)sc2ccccc21`, the z-score was -0.0788. In turn, `Cn1cnnc1SCC(=O)Nc1ccccc1C(=O)NC1CC1` registered a z-score of -0.145. `CSc1ccccc1C(=O)Nc1ccc(C)c(C)c1`: the z-score was -0.333. As for `Cc1ccc(C(=O)NC(=S)Nc2ccc(NC(=O)c3cccc(Cl)c3)cc2)cc1`, the figure is -0.278; as for `CCCONC(=O)Nc1ccccc1[N+](=O)[O-]`, -0.204; as for `O=C1NN(c2ccccc2)C(=O)C2C1C1C=CC2C12CC2` (stereo not drawn), 0.0539. As for `Cc1cccc(N2C(=O)c3cccc(Oc4ccc(Cl)cc4)c3C2=O)c1`, the figure is -0.0858.

On to `Cc1ccc(NC(=O)C2CCCN2C(=O)Oc2ccccc2)cc1C` (stereo not drawn), for which the z-score was -0.375. `CC(=O)Nc1n[nH]c(S(=O)(=O)Cc2ccc(Cl)cc2Cl)n1` gave a z-score of -0.0134. As for `COc1ccc(N2CCN(CCCNC(=O)CCCn3c(=O)[nH]c4ccsc4c3=O)CC2)cc1`, the z-score turned out to be 1.23. Take `CCCc1cc2c(=O)c(-c3ccc4c(c3)OCCO4)coc2cc1OC(=O)c1ccco1`: the z-score was -0.0335. In the case of `CCCCSc1nc(NCc2ccco2)c2c3c(sc2n1)COC(C)(C)C3`, the z-score is -0.404.

On to `Cc1noc(C)c1C(=O)OCC(=O)Nc1cccc(S(=O)(=O)N(C)C)c1`, for which the z-score was -0.164. As for `O=C(CSCc1ccc([N+](=O)[O-])cc1)Nc1cccc(C(=O)Nc2ccccc2C(=O)O)c1`, the figure is -0.965; as for `CCCCc1cc2c(c(NC(=O)CC)n1)c(=O)oc1ccccc12`, -0.342; as for `Cc1ccc(C)c(N(C(=O)CS(=O)CC(=O)Nc2ccc3c(c2)OCO3)C(C)C(=O)NC2CCCC2)c1` (stereo not drawn), 0.0572.

In turn, `O=C(CCC(=O)OCc1ccc(C(=O)Oc2ccc(Cl)cc2)cc1)Nc1ccccc1` came in with a z-score of -0.077. Turning to `Cc1cc(=O)oc2c1c(C)nn2-c1nn[nH]n1`, the z-score was found to be 0.873. For the molecule `O=C(COc1ccc(S(=O)(=O)NC2CCCCC2)cc1)Nc1ccc2c(c1)OCCO2`, the z-score is -0.0244. As for `Cc1cc(NC(=O)CSCc2nc(-c3cccc(F)c3)oc2C)no1`, the figure is -0.234; as for `CCCN(CCC)C(=O)Cc1coc2ccc3ccccc3c12`, -0.408. As for `NC(=O)CN1C(=O)C2C3C=CC(C3)C2C1=O` (stereo not drawn), the figure is 0.92; as for `CCOC(=O)C1=C(c2ccccc2)N=c2s/c(=C\c3cccc(O)c3)c(=O)n2C1c1cccs1` (stereo not drawn), -0.249. `O=C(Nc1nnc(SCc2c(Cl)cccc2Cl)s1)C1CCCO1` (stereo not drawn) registered a z-score of -0.569.

The molecule `O=C(Nc1cccnc1)c1cc(-c2ccco2)on1` came in with a z-score of -0.416. For `COc1cccc(/C=N/NC(=O)c2[nH]c(C)c(C(=O)N/N=C/c3cccc(OC)c3O)c2C)c1O`, the z-score was -0.319. Molecule `COc1ccc(OCCCC(=O)Nc2cccc(C(C)=O)c2)cc1` registered a z-score of -0.154. As for `COc1ccc(C(O)C(CN2CCOCC2)c2ccccc2)cc1F` (stereo not drawn), the figure is 0.257. As for `Cc1c(C(=O)NCCC2=CCCCC2)oc2ccc(S(=O)(=O)N3CCC4(CC3)OCCO4)cc12`, the figure is 0.452; as for `O=C(O)C1CCCCC1C(=O)N1CC=C(c2ccccc2)CC1` (stereo not drawn), 0.767; as for `Cc1ccccc1C(=O)Nc1cccc(NC(=S)NC(=O)c2cccs2)c1`, -0.348.

In turn, `O=S(=O)(Nc1nc2ccccc2nc1NCc1ccco1)c1ccc(Cl)cc1` came in with a z-score of -0.195. As for `CCC(C)(C)NC(=O)C(c1ccccc1)N(Cc1cccs1)C(=O)Cn1nnc2ccccc21` (stereo not drawn), the figure is 0.0386. The figure for `Cc1onc(-c2c(F)cccc2Cl)c1C(=O)N1C=CC(C(F)(F)F)=NCC1` is -0.013; for `CCCc1cc(C(=O)NC2CCCC2)no1` it is 1.06; for `CN(C)CCNC(=O)C1CCCNC1=O` (stereo not drawn) it is 0.0264. As for `NC(=O)c1ccc(N2CCCCC2)c(N2C(=O)C3CC=CCC3C2=O)c1` (stereo not drawn), the figure is 0.258; as for `O=C(CN1CCN(c2ncccn2)CC1)Nc1ccccc1-n1cccc1`, -0.817. Molecule `Cc1ccc(C(=O)N2CCN(c3ccc([N+](=O)[O-])c(N4CCOCC4)c3)CC2)cc1` gave a z-score of -0.394. `Cc1nn(-c2ccccc2)c(C)c1/C=N/Nc1nc2ccccc2[nH]1`: the z-score was -0.376. In turn, `Cc1ccc(NC(=O)CSc2nnc(-c3ccco3)c(-c3ccco3)n2)cc1` displayed a z-score of -0.141. Regarding `COc1nc(N(c2ccccc2)c2ccccc2)nc(-n2ccnc2)n1`, the z-score is -2.75. As for `COc1cc(C(=O)Nc2ccc(S(=O)(=O)Nc3nccc(C)n3)cc2)cc(OC)c1OC`, the z-score worked out at 0.00518.

`CCOC(=O)C1=C(c2ccccc2)Nc2ncnn2C1c1ccc(OC)c(OC)c1OC` (stereo not drawn) came in with a z-score of -0.365. The figure for `CSc1ccc(/C=C/C(=O)c2ccc(O)cc2)cc1` is 0.969; for `COc1ccccc1CN1C(=O)CCC1(C)C(=O)NC1CCCCCC1` (stereo not drawn) it is 0.277.

`CNC(=S)N(Cc1ccc(OC)cc1)C1CC(=O)N(c2ccc(C(=O)OC)cc2)C1=O` (stereo not drawn) returned a z-score of -0.228. As for `CCOC(=O)N1CCN(c2c(F)cc3[nH]c(=S)[nH]c3c2Br)CC1`, the figure is active: 6.26. `CCOC(=O)c1c(NC(=O)c2c(C)noc2C)sc2c1CCCCC2` yielded a z-score of -0.649. Turning to `O=C(Nc1ccc2oc(-c3ccccc3F)nc2c1)c1ncn[nH]1`, the z-score was -0.429.

Turning to `CCn1c(SCC(=O)NNC(=S)Nc2ccccc2)nnc1-c1ccc(Cl)cc1`, the z-score was -0.048.

For the molecule `CCCc1cc(-c2nc(-c3ccc(Br)cc3)cs2)ccn1`, the z-score is 0.0465.

The molecule `Cc1cc(C(=O)COC(=O)CC2Sc3ccccc3NC2=O)c(C)n1-c1ccc2c(c1)OCO2` (stereo not drawn) registered a z-score of -0.474.

`Cn1cnnc1SCC(=O)Nc1ccccc1` came in with a z-score of -0.0644. For the molecule `CCCCC(=O)NC(=S)Nc1cc(C(=O)O)ccc1Cl`, the z-score was -0.872. The figure for `O=C(COC(=O)C1CCC1)Nc1ccc(Oc2ccccc2)cc1` is 0.0229; for `Cc1ccc2nc3c(cc2c1)c(NC(=O)c1cccnc1)nn3C` it is 0.179. The figure for `CS(=O)(=O)N(CC(=O)N1CCN(Cc2ccccc2)CC1)C1CCCCC1` is -0.0513.
